B1: PDGFRα wild type truncated after residue R979, fused to nanoluciferase or HaloTag [not stated] / itself (parent)
chain: QLSLPSILPNENEKVVQLNSSFSLRCFGESEVSWQYPMSEEESSDVEIRNEENNSGLFVTVLEVSSASAAHTGLYTCYYNHTQTEENELEGRHIYIYVPDPDVAFVPLGMTDYLVIVEDDDSAIIPCRTTDPETPVTLHNSEGVVPASYDSRQGFNGTFTVGPYICEATVKGKKFQTIPFNVYALKATSELDLEMEALKTVYKSGETIVVTCAVFNNEVVDLQWTYPGEVKGKGITMLEEIKVPSIKLVYTLTVPEATVKDSGDYECAARQATREVKEMKKVTISVHEKGFIEIKPTFSQLEAVNLHEVKHFVVEVRAYPPPRISWLKNNLTLIENLTEITTDVEKIQEIRYRSKLKLIRAKEEDSGHYTIVAQNEDAVKSYTFELLTQVPSSILDLVDDHHGSTGGQTVRCTAEGTPLPDIEWMICKDIKKCNNETSWTILANNVSNIITEIHSRDRSTVEGRVTFAKVEETIAVRCLAKNLLGAENRELKLVAPTLRSELTVAAAVLVLLVIVIISLIVLVVIWKQKPRYEIRWRVIESISPDGHEYIYVDPMQLPYDSRWEFPRDGLVLGRVLGSGAFGKVVEGTAYGLSRSQPVMKVAVKMLKPTARSSEKQALMSELKIMTHLGPHLNIVNLLGACTKSGPIYIITEYCFYGDLVNYLHKNRDSFLSHHPEKPKKELDIFGLNPADESTRSYVILSFENNGDYMDMKQADTTQYVPMLERKEVSKYSDIQRSLYDRPASYKKKSMLDSEVKNLLSDDNSEGLTLLDLLSFTYQVARGMEFLASKNCVHRDLAARNVLLAQGKIVKICDFGLARDIMHDSNYVSKGSTFLPVKWMAPESIFDNLYTTLSDVWSYGILLWEIFSLGGTPYPGMMVDSTFYNKIKSGYRMAKPDHATSEVYEIMVKCWNSEPEKRPSFYHLSEIVENLLPGQYKKSYEKIHLDFLKSDHPAVAR

Variants of B1 are the subject of the first assay. The assay can be described thus: NanoBRET. Particulars: with itself; Control (no PDGF-BB); living cells; mean of four independent experiments; parent: 1; read off a plot.
chain 1 K362I: the response was found to be 1.9 BRET Ratio.

The same assay, now with this note: with itself; PDGF-BB stimulated; living cells; mean of four independent experiments; parent: 2; read off a plot.
With chain 1 K362I, the response was 1.8 BRET Ratio.

These data come from article PMC10965988.
